We go through 43 molecules from ChEMBL document CHEMBL4888484, “Replenishing the malaria drug discovery pipeline: Screening and hit evaluation of the MMV Hit Generation Library 1 (HGL1) against asexual blood stage Plasmodium falciparum ,using a nano luciferase reporter read-out” (2022).

The whole screen tested about 150,000 compounds, of which about 540 (0.36%) showed an effect of 50% or more. The list shows a part of the results.

This test has as its system Plasmodium falciparum. Briefly: Primary screen in NF54 nanoGlo assay, in single point, at 2uM, 72h; a lower Z score goes with more inhibition. The test is classed as functional, Erythrocyte. The following applies: timepoint 72 hour.
For the molecule `CCc1nc(N)nc(N(C)C[C@H]2CCCCO2)c1C`, the “% Inhibition” value was -12% and the Z score turned out to be 2.26.

Take `N#Cc1nccnc1N1CC(n2cc(-c3ccccc3)nn2)C1`: the “% Inhibition” value was -20% and the Z score is 2.02.

As for `CCOC(=O)c1c(C)[nH]c(CCC(=O)N2CCCCC2)c1C`, the “% Inhibition” value was -3% and the Z score turned out to be 0.56.

As to `Cc1cc(C)cc(OCC(=O)N[C@](C)(C#N)C(C)C)c1`, the “% Inhibition” value is 2% and the Z score is listed as -0.22.

Turning to `CNC(=O)c1cc(S(=O)(=O)N2CC(C)OC(C)C2)ccc1NCc1ccccc1` (stereo unspecified), the “% Inhibition” value came out at 0% and the Z score is reported as -0.04.

Take `Cc1ccc([C@H](CNC(=O)c2ccco2)N2CCCC2)o1`: the “% Inhibition” value is listed as -3% and the Z score is listed as 0.5.

For `Cc1cnn(CCC(=O)N2CCCC[C@@H]2CCN2CCCC2)c1`, the “% Inhibition” value is given as -15% and the Z score was found to be 2.77.

As for `O=C(Nc1ccc2c(c1)CCC2)[C@H]1CNC[C@@H](C(=O)NC2CCCCC2)C1`, the “% Inhibition” value is recorded as -14% and the Z score turned out to be 1.67.

Take `CC(C)=C1CC[C@@H](C)CC1NCC(O)c1cnn(C)c1` (stereo partly specified): the “% Inhibition” value is listed as 0% and the Z score worked out at 0.

As for `Cc1cc(C)n(C)c(=O)c1-c1nc([C@]2(c3ccc(F)cc3)CCOC2)no1`, the “% Inhibition” value is listed as 1% and the Z score is on record as -0.19.

For `CCc1ccc(NC(=O)Cn2c3c(c(=O)n4nc(-c5ccc(C)cc5)nc24)CCC3)cc1`, the “% Inhibition” value is 14% and the Z score is -1.73.

For the molecule `CC(C)c1nnsc1C(=O)N1CCC[C@H](CCc2ccc(F)cc2F)C1`, the “% Inhibition” value is 11% and the Z score is on record as -1.37.

Take `Cc1nn(CCCC(=O)NCc2ccc3c(c2)OCO3)c(=O)c2noc(C)c12`: the “% Inhibition” value was determined as 0% and the Z score is on record as -0.09.

On to `O=C(Nc1ccc(Oc2ccccc2)cc1)c1cn(-c2ccc(F)cc2F)c(=O)c2ccccc12`, for which the “% Inhibition” value was 20% and the Z score was -2.34.

Turning to `Nc1nonc1C(=O)N1CCCN(S(=O)(=O)c2cccs2)CC1`, the “% Inhibition” value was determined as 33% and the Z score is -4.45.

In the case of `O=C(O)[C@H]1CCCN1CCCOCCc1ccccc1`, the “% Inhibition” value was -8% and the Z score came out at 0.65.

On to `CC(CO)(CO)NC(=O)NCc1cc(F)cc(C(F)(F)F)c1`, for which the “% Inhibition” value is -5% and the Z score stood at 0.7.

`Cn1ncc(Cl)c1S(=O)(=O)N1C[C@H](O)C(C)(C)C1`: the “% Inhibition” value is -8% and the Z score was 1.06.

Consider `CC(C)(C)n1cnc(C(=O)N2CCCC23CCCCC3)n1`, for which the “% Inhibition” value amounted to 0% and the Z score is -0.06.

As to `CN(CCCNC(=O)C1CCCC1)CC(F)(F)F`, the “% Inhibition” value was determined as 2% and the Z score is given as -0.31.

For the molecule `CC(C)(C)c1nnc(NCCOCc2ccccc2)o1`, the “% Inhibition” value was -7% and the Z score was found to be 1.4.

With `C1CCc2c(CNC3C[C@@H]4CCCC[C@H]34)noc2C1` (stereo partly specified), the “% Inhibition” value was 13% and the Z score is -1.92.

With `CCN(CCCCO)CCOc1ccc(OC)cc1`, the “% Inhibition” value is reported as -3% and the Z score was determined as 0.51.

Consider `CCc1cccc2[nH]c(C(=O)N3CCNC[C@H]3C)cc12`, for which the “% Inhibition” value was 22% and the Z score is on record as -2.73.

On to `Cc1n[nH]c(CC(=O)N2CCO[C@@H](COCC3CC3)C2)n1`, for which the “% Inhibition” value was determined as 26% and the Z score was -3.3.

Take `CCCN1CCCN(CCOc2cccc(S(C)(=O)=O)c2)CC1`: the “% Inhibition” value was -16% and the Z score is given as 2.11.

Regarding `Cn1cccc(C(=O)N[C@H]2CCOC[C@@H]2O)c1=O`, the “% Inhibition” value is recorded as -4% and the Z score was 0.57.

For `CCCCc1nc(CN2CC[C@H](CNC(C)=O)[C@@H](O)C2)c[nH]1`, the “% Inhibition” value is reported as 8% and the Z score was -1.08.

With `NC(=NOCC(=O)NCc1cccc(Cl)c1)c1cccnc1Oc1ccccc1`, the “% Inhibition” value was found to be 6% and the Z score is given as -0.81.

On to `Cc1nsc(N2CCC(CCCn3ccnc3)CC2)c1C#N`, for which the “% Inhibition” value was -17% and the Z score stood at 3.34.

As for `OC[C@@H]1CCCN(Cc2cc3n(n2)CCCC3)[C@@H]1C(F)(F)F`, the “% Inhibition” value is reported as -9% and the Z score worked out at 1.32.

For the molecule `CN(C)c1ccc(NC(=O)C2CCC2)cc1CN(C[C@H]1CCCO1)C(=O)c1ccco1`, the “% Inhibition” value is listed as -2% and the Z score is listed as 0.36.

In the case of `Cc1n[nH]c(C)c1CNc1cncc(F)c1`, the “% Inhibition” value is listed as -9% and the Z score came to 0.93.

Regarding `NC[C@H]1Cc2cccc(-c3cccc(-n4cnnc4)c3)c2O1`, the “% Inhibition” value is -10% and the Z score is on record as 1.24.

Turning to `Cc1ccc(-c2nnc3n2CCOC3)o1`, the “% Inhibition” value is given as 3% and the Z score is -0.59.

Consider `COc1ccc(-c2csc(C3=C(O)CN(CCc4nc(C)cs4)C3=N)n2)cc1`, for which the “% Inhibition” value is 6% and the Z score is listed as -0.7.

As for `COCc1nc(CN2CCN(C(=O)OC(C)(C)C)C(C)C2C)cs1` (stereo unspecified), the “% Inhibition” value is on record as 2% and the Z score was -0.24.

`O=C(CN1CCC[C@H]1c1nc2ccccc2s1)NCCc1c[nH]c2ccccc12`: the “% Inhibition” value is on record as -11% and the Z score is 1.01.

Turning to `COc1ccc(Cc2nc(-c3ccc4c(c3)ncn4CCC(=O)N3CCCC3)no2)cc1`, the “% Inhibition” value was -12% and the Z score turned out to be 1.68.

With `Cc1nc(N(C)C)sc1C(=O)N[C@@H](C)c1cc2ccccc2o1`, the “% Inhibition” value was -6% and the Z score came out at 0.74.

Regarding `C=CCO[C@H]1[C@H](NC(=O)COC)c2ccccc2C12CCN(Cc1cccc(C)c1)CC2`, the “% Inhibition” value was -15% and the Z score is reported as 2.34.

Take `C[C@H](NC(=O)Nc1ccc(-n2cncn2)cc1C(F)(F)F)C(=O)NCC(F)(F)F`: the “% Inhibition” value is on record as 11% and the Z score is -1.36.

Take `COc1ccc(Cl)cc1S(=O)(=O)N(CC(=O)N1CCNCC1)C1CCCCCC1`: the “% Inhibition” value was -6% and the Z score is reported as 0.64.
